In PubChem BioAssay AID894 (National Center for Advancing Translational Sciences (NCATS), 2007):
About 6,500 (4.3%) of roughly 150,000 compounds were called active. This list was built around the results that the source calls inconclusive (neither active nor inactive); the mix of calls is not that of the screen. The call rests on the fitted dose curve; in most records, active means well fitted inhibition curve with a large enough effect (not every such curve was filed as active); inconclusive means small, poorly fitted or top-dose-only effect, or another doubt; inactive means no such curve, though single readings can be large or run the other way. Potencies of inconclusive entries are left out as doubtful fits.

target: 15-hydroxyprostaglandin dehydrogenase [NAD(+)] (Homo sapiens) (UniProt P15428); assay: qHTS Assay for Inhibitors of HPGD (15-Hydroxyprostaglandin Dehydrogenase); conditions: purified HPGD, NADH fluorescence kinetic, PGE2 substrate; activity change, negative = inhibition: hits give low values
Sequence of UniProt P15428 (P15428 whole entry, looked up): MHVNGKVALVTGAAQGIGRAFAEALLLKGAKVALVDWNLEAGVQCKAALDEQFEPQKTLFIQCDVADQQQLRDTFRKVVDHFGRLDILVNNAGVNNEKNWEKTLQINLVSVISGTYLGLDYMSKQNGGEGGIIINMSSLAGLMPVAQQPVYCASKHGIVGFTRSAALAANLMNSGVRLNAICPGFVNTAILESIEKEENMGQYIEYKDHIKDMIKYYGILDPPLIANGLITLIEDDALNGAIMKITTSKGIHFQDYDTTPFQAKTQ
Method in brief: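 20 nM HPGD preincubated 15 min at room temperature with compound in 50 mM Tris-HCl pH 8, 0.01% Tween 20. Started with 1 mM NAD+ and 30 uM prostaglandin E2; NADH fluorescence (360/450 nm) read 5 times over 30-s intervals, last minus first.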
On the % scale 0 is the no-effect control and ±100 the full control effect; potency means the concentration at half of the fitted maximal effect; tags describe the fitted curve by direction and shape.

**Q.** How did the Potency turn out when `O=C(CCCn1c(=S)[nH]c2ccccc2c1=O)NC1CCCC1` was run?
**A.** active: 14.1 µM

**Q.** For `Cc1ccc(-c2nc(NC(=O)CSc3nnnn3-c3ccccc3)ns2)cc1`, which Potency is on record?
**A.** inconclusive [inhibitor, partial curve]

**Q.** `Cc1ccc(Oc2nc3ccccc3n3c(C)nnc23)c(C)c1` was tested. Which activity change, negative = inhibition did it give?
**A.** inactive: -11.6%

**Q.** How did the activity change, negative = inhibition turn out when `O=C(c1ccc(S(=O)(=O)Nc2ccc(F)cc2)cc1)N1CCN(C(=O)c2ccco2)CC1` was run?
**A.** inactive: -9.1%

**Q.** With `COCCn1c(C(=O)N2CCCC2)cc2c1C[C@H]1CN(C(=O)c3ccccc3)[C@@](Cc3ccc(OC)cc3)(C(=O)OC)[C@@H]21` as the compound, how does the activity change, negative = inhibition read?
**A.** inactive: -15.2%

**Q.** For `CN1CCN(c2ncnc3c2[nH]c2ccc(F)cc23)CC1`, which Potency is on record?
**A.** inconclusive [inhibitor, single point]

**Q.** How did the activity change, negative = inhibition turn out when `COc1ccccc1CN1CCCC2(CCN(S(=O)(=O)c3ccccc3)CC2)C1` was run?
**A.** inactive: -3.17%

**Q.** How did the Potency turn out when `NS(=O)(=O)c1ccc(NC(=S)NCc2ccccc2)cc1` was run?
**A.** active: 20 µM

**Q.** For `Cc1c(Cl)cccc1NC(=O)c1cc(-c2ccccc2O)n[nH]1`, which Potency is on record?
**A.** active: 12.6 µM

**Q.** For `Cc1ccccc1OCC(=O)N/N=C/c1cn(Cc2ccccc2)c2ccccc12`, which Potency is on record?
**A.** inconclusive [inhibitor, partial curve]

**Q.** How did the activity change, negative = inhibition turn out when `C=CCn1c(N)cc(=O)nc1SCC(=O)N1CCN(c2ccc(F)cc2)CC1` was run?
**A.** inactive: -7.39%

**Q.** Which Potency does the source give for `Cn1c(=O)c2ncn(CC(=O)Nc3cccc(-c4nc5ccccc5s4)c3)c2n(C)c1=O` here?
**A.** inconclusive [inhibitor, single point]

**Q.** Which Potency does the source give for `C/C(=C\c1ccccc1)C(=O)Nc1cc(C)on1` here?
**A.** inconclusive [inhibitor, single point]

**Q.** With `COC(=O)c1sc2ncccc2c1OCc1ccccc1Cl` as the compound, how does the Potency read?
**A.** inconclusive [inhibitor, partial curve]

**Q.** For `Cc1ccc(/C=N/n2c(C3CCCCC3)n[nH]c2=S)o1`, which Potency is on record?
**A.** active: 28.2 µM

**Q.** How did the Potency turn out when `Cc1sc2nc(-c3ccco3)oc(=O)c2c1C` was run?
**A.** inconclusive [inhibitor, partial curve]

**Q.** `COc1cc2nc(N3CCN(C(=O)[C@@H]4CCCO4)CC3)nc(N)c2cc1OC` was tested. Which Potency did it give?
**A.** inconclusive [inhibitor, partial curve]

**Q.** How did the Potency turn out when `Oc1ccc(-c2cccc(-c3ccc(O)cc3)n2)cc1` was run?
**A.** inconclusive [inhibitor, partial curve]

**Q.** For `Cn1cc([N+](=O)[O-])c(C(=O)NCc2cc3cc(Cl)ccc3[nH]2)n1`, which activity change, negative = inhibition is on record?
**A.** inactive: 4.02%

**Q.** With `CC(C)OCCCn1c(=N)c(C(N)=S)cc2c(=O)n3ccccc3nc21` as the compound, how does the Potency read?
**A.** inconclusive [inhibitor, partial curve]

**Q.** For `CC(=O)OCC(=O)Nc1ccc(Cl)cc1Cl`, which Potency is on record?
**A.** active: 20 µM

**Q.** `CNc1nc(C)cc(C)c1S(=O)(=O)c1ccc(Cl)cc1` was tested. Which Potency did it give?
**A.** inconclusive [inhibitor, partial curve]

**Q.** With `COC(=O)c1sc(NC(=O)c2ccco2)nc1C` as the compound, how does the Potency read?
**A.** inconclusive [inhibitor, partial curve]

**Q.** Which activity change, negative = inhibition does the source give for `O=C(Nc1ccc2c(c1)OCCO2)C1CCN(S(=O)(=O)c2cccc3nsnc23)CC1` here?
**A.** inactive: -14.9%

**Q.** Which Potency does the source give for `COC(=O)c1ccc(/C=N/OCC(=O)NC2CCCC(C)C2C)cc1` (stereo not given) here?
**A.** active: 11.2 µM

**Q.** With `Cc1ccc(C2Nc3ccccc3C(=O)N2Cc2ccco2)cc1` (stereo not given) as the compound, how does the Potency read?
**A.** inconclusive [inhibitor, partial curve]

**Q.** Which Potency does the source give for `Nc1nc(-c2cccc(Br)c2)cs1` here?
**A.** inconclusive [inhibitor, single point]

**Q.** How did the activity change, negative = inhibition turn out when `CCOC(=O)c1c(NC(=O)CN2CCN(c3ccc(Cl)cc3)CC2)sc(C)c1C` was run?
**A.** inactive: -20.9%

**Q.** Which Potency does the source give for `Cc1cc(N)n2nc(-c3ccccc3)cc2n1` here?
**A.** inconclusive [inhibitor, partial curve]

**Q.** Which activity change, negative = inhibition does the source give for `CC(=O)c1c(N2CCCCC2)nc(=O)n(-c2ccccc2)c1C` here?
**A.** inactive: -6.06%

**Q.** `CCc1ccccc1N(CC(=O)NCc1ccco1)C(=O)c1snc(C(N)=O)c1N` was tested. Which Potency did it give?
**A.** inconclusive [inhibitor, partial curve]

**Q.** Which activity change, negative = inhibition does the source give for `COc1ccc(CCN2C(=O)C3CC(C)=C(C)CC3C2=O)cc1OC` (stereo not given) here?
**A.** inactive: -15.1%

**Q.** How did the Potency turn out when `CCCc1ccc(OCc2nc(-c3ccc(NC(=O)c4cccs4)cc3)no2)cc1` was run?
**A.** inconclusive [inhibitor, partial curve]

**Q.** With `COc1ccc(-c2[nH]c(-c3ccc(C(=O)O)cc3)nc2-c2ccccc2)cc1` as the compound, how does the Potency read?
**A.** inconclusive [inhibitor, partial curve]

**Q.** With `COC(=O)C1=C(C)Nc2c(c(=O)n(C)c(=O)n2C)C1c1ccc(Cl)cc1` (stereo not given) as the compound, how does the Potency read?
**A.** inconclusive [inhibitor, partial curve]

**Q.** Which Potency does the source give for `COc1cc(/C=C(\C#N)c2nc3c(s2)CCCC3)ccc1O` here?
**A.** inconclusive [inhibitor, partial curve, poor fit]

**Q.** Which Potency does the source give for `O=C1/C(=C/c2cccnc2)Oc2cc(OS(=O)(=O)c3ccccc3)ccc21` here?
**A.** inconclusive [inhibitor, single point]

**Q.** For `O=C(OCc1nnc(-c2ccccc2)o1)c1ccc2c(c1)OCO2`, which Potency is on record?
**A.** active: 7.08 µM

**Q.** Which Potency does the source give for `CCOC(=O)CNc1c(-c2ccc(O)cc2)nc2ccccn12` here?
**A.** inconclusive [inhibitor, partial curve]

**Q.** How did the Potency turn out when `O=C(CSc1nnc(-c2ccco2)o1)c1ccccc1` was run?
**A.** inconclusive [inhibitor, partial curve]

**Q.** Which Potency does the source give for `CCOC(=O)C1CCCN(C(=O)c2ccc(OCC)cc2)C1` (stereo not given) here?
**A.** active: 14.1 µM

**Q.** `NCCN` was tested. Which activity change, negative = inhibition did it give?
**A.** inactive: -0.196%

**Q.** `FC(F)(F)c1cc(-c2ccco2)nc(NCc2ccccc2)n1` was tested. Which Potency did it give?
**A.** inconclusive [inhibitor, partial curve]

**Q.** `COc1ccc2nc(NS(=O)(=O)c3ccc(NC(C)=O)cc3)sc2c1` was tested. Which Potency did it give?
**A.** active: 28.2 µM

**Q.** Which Potency does the source give for `O=c1[nH]cnc2c1sc(=S)n2-c1ccccc1` here?
**A.** active: 14.1 µM

**Q.** How did the activity change, negative = inhibition turn out when `CC(=O)n1c2ccccc2c2ccccc21` was run?
**A.** inactive: -16.1%

**Q.** Which Potency does the source give for `Clc1ccccc1CSc1nnc(/C=C/c2ccccc2)o1` here?
**A.** inconclusive [inhibitor, single point]

**Q.** Which Potency does the source give for `N#Cc1c(C(F)(F)F)cc(-c2ccc(Cl)cc2)[nH]c1=O` here?
**A.** inconclusive [inhibitor, partial curve]

**Q.** `CC1CCCN(S(=O)(=O)c2ccc3c(c2)CCN3C(=O)C2CCC2)C1` (stereo not given) was tested. Which activity change, negative = inhibition did it give?
**A.** inactive: -9.22%

**Q.** Which Potency does the source give for `O=C(OCc1cc(=O)n2c(n1)sc1ccccc12)c1ccc(O)cc1` here?
**A.** active: 14.1 µM

**Q.** For `O=C(O)CCC(=O)Nc1nc2nc(-c3ccccc3)cc(-c3ccccc3)n2n1`, which Potency is on record?
**A.** inconclusive [inhibitor, partial curve]

**Q.** `COc1cccc(C(c2sc3nc(C)nn3c2O)N2CCc3ccccc3C2)c1` (stereo not given) was tested. Which Potency did it give?
**A.** active: 11.2 µM

**Q.** `COc1ccc2c(c1OC)C(=O)OC2[C@H]1c2c(cc3c(c2OC)OCO3)CCN1C` (stereo not given in full) was tested. Which activity change, negative = inhibition did it give?
**A.** inactive: -0.105%

**Q.** For `Cc1ccc(-c2noc(CCC(=O)N3CCCC3)n2)cc1`, which Potency is on record?
**A.** active: 25.1 µM

**Q.** `O=C(CCCCCN1C(=O)c2ccccc2C1=O)Nc1ccccc1` was tested. Which Potency did it give?
**A.** inconclusive [inhibitor, partial curve]

**Q.** With `COc1ccc2oc(=O)cc(C)c2c1` as the compound, how does the Potency read?
**A.** inconclusive [inhibitor, partial curve]

**Q.** `Cc1nc(-c2ccc(C(=O)O)cc2)cs1` was tested. Which activity change, negative = inhibition did it give?
**A.** inactive: -9.39%

**Q.** For `Cn1c(-c2ccc(F)cc2)cnc1NCc1ccc(F)cc1`, which Potency is on record?
**A.** inconclusive [inhibitor, full curve]

**Q.** With `C[C@@H](C(=O)O)c1ccc(C(=O)c2ccccc2)s1` as the compound, how does the Potency read?
**A.** active: 14.1 µM

**Q.** With `Cc1cccc2cc3c(NC(=O)CC(C)C)nn(C)c3nc12` as the compound, how does the Potency read?
**A.** inconclusive [inhibitor, partial curve]

**Q.** With `COc1ccc(CC(=O)Nc2cccc(C)n2)cc1OC` as the compound, how does the activity change, negative = inhibition read?
**A.** inactive: -0.952%

**Q.** Which Potency does the source give for `CC1=C([N+](=O)[O-])C(c2ccccc2)C2=C(N1)c1ccccc1C2=O` (stereo not given) here?
**A.** active: 22.4 µM

**Q.** With `O=C(O)Cc1ccc(C(=O)c2ccc(Cl)cc2)s1` as the compound, how does the Potency read?
**A.** inconclusive [inhibitor, single point]

**Q.** `Clc1ccc(Oc2ncnc3oc(-c4ccccc4)cc23)cc1` was tested. Which Potency did it give?
**A.** inconclusive [inhibitor, partial curve]

**Q.** Which Potency does the source give for `O=C1C=CC2=C3c4cc(O)c(O)cc4C[C@@]3(O)COC2=C1` here?
**A.** active: 11.2 µM

**Q.** With `CC(C)c1ccc2nc3sc(C(=O)N4CCc5ccccc5C4)c(N)c3cc2c1` as the compound, how does the Potency read?
**A.** active: 15.8 µM

**Q.** With `CCOc1cc(C(=S)N2CCOCC2)ccc1OS(=O)(=O)c1ccccc1[N+](=O)[O-]` as the compound, how does the Potency read?
**A.** active: 15.8 µM

**Q.** With `Cc1ccccc1NC(=O)CSc1nc(N)c2c3c(sc2n1)CSC(C)(C)C3` as the compound, how does the Potency read?
**A.** inconclusive [inhibitor, partial curve]

**Q.** For `COc1cc(C(=O)Nc2ccc(S(=O)(=O)Nc3onc(C)c3C)cc2)cc(OC)c1OC`, which Potency is on record?
**A.** inconclusive [inhibitor, partial curve]

**Q.** With `Cc1ccc(-n2c(-c3nn(C)cc3Cl)n[nH]c2=S)cc1` as the compound, how does the activity change, negative = inhibition read?
**A.** inactive: -16.8%

**Q.** How did the Potency turn out when `CSc1ccccc1NC(=O)c1cc(C2CC2)on1` was run?
**A.** inconclusive [inhibitor, single point]

**Q.** With `O=C(Nc1cccc(O)c1)C(Cc1ccccc1)N1C(=O)c2cccc3cccc(c23)C1=O` (stereo not given) as the compound, how does the activity change, negative = inhibition read?
**A.** inactive: -23.1%

**Q.** How did the activity change, negative = inhibition turn out when `c1cncc(-c2nnc3n2CCC3)c1` was run?
**A.** inactive: -5.47%

**Q.** How did the Potency turn out when `CCCCn1nc2cc(C(=O)NCc3ccc(C(F)(F)F)cc3C(F)(F)F)ccc2c1OCC` was run?
**A.** inconclusive [inhibitor, partial curve]

**Q.** Which Potency does the source give for `COc1ccc(Br)cc1/C=N/NC(=O)c1ccc(COc2ccc3c(c2)CCC3)o1` here?
**A.** inconclusive [inhibitor, partial curve]
